# Source: PubChem BioAssay AID686978 (National Center for Advancing Translational Sciences (NCATS), 2013)
# Hit rate of the full screen: of about 420,000 compounds, about 64,000 (15%) were called active. Inconclusive results, whose numbers are uncertain, are shown with a selection of clear calls. The call rests on the fitted dose curve; in most records, active means well fitted inhibition curve with a large enough effect; inconclusive means small, poorly fitted or top-dose-only effect; inactive means flat fitted curve, though single readings scatter. No potency is given beside an inconclusive call; the fits are too rough.
# Assay: qHTS for Inhibitors of human tyrosyl-DNA phosphodiesterase 1 (TDP1): qHTS in cells in absence of CPT; further: nearly all actives have a fitted effect of over 55% in size
# Conditions: DT40 Tdp1-/- hTDP1 cells, no CPT, ATP luminescence, 48 h; activity change, negative = growth inhibition: at 46.2 µM (top of the series) unless noted
# Method in brief: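 Growth of hTDP1-complemented DT40 Tdp1-knockout cells is measured by ATP luminescence after at least 48 hr compound exposure at 37 °C, with DMSO substituting for the 20 nM CPT used in the parallel screen.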
# On the % scale 0 is the no-effect control and ±100 the full control effect; potency means the concentration at half of the fitted maximal effect; tags describe the fitted curve by direction and shape.
Structure (SMILES),Potency,"activity change, negative = growth inhibition"
CCOc1ccc(NC(=O)Cn2cc(C(=O)c3ccc(C)c(C)c3)c(=O)c3cc(F)ccc32)cc1,"inconclusive [inhibitor, single point]",
O=S(=O)(c1cccc2cccnc12)N1CCN(Cc2ccccc2)CC1,inactive,
O=C(Nc1cnc2ccccc2c1)N1CCCCC1,"inconclusive [inhibitor, full curve]",
Cc1nc(SCC(=O)N(CC(C)C)C2CCS(=O)(=O)C2)c2ccccc2n1 (stereo not given),"inconclusive [inhibitor, single point]",
CCN(CC(=O)Nc1ccc(NC(C)=O)cc1)C(=O)Cc1coc2cc(C)c(C)cc12,inactive,
CC(c1ccccc1)c1nnc(NC(=O)c2ccc3c(c2)OCO3)s1 (stereo not given),active: 18.4 µM,
COC(=O)C1=CN(c2ccc(C(C)(C)C)cc2)C(N)=C(C#N)C1c1cccc2ccccc12 (stereo not given),active: 13 µM,
C=CCn1c(COc2cccc3ccc(C)nc23)nnc1SCC(=O)OC,inactive,
Cc1cc(C)n(-c2nc3nonc3nc2-n2nc(C)cc2C)n1,inactive,
O=C(CN1CCN(c2ccc([N+](=O)[O-])cc2)CC1)Nc1ccccn1,"inconclusive [inhibitor, single point]",
CCOc1ccc2nc(N3CCCC(C(=O)NCCc4ccc(SC)cc4)C3)sc2c1 (stereo not given),,inconclusive: -30.5% [inhibitor]
O=C(Nc1ccccc1N1CCCC1)c1cc(S(=O)(=O)N2CCOCC2)ccc1Cl,"inconclusive [inhibitor, single point]",
COc1cccc(Nc2nc(N)nc(C(F)(F)F)n2)c1,inactive,
CCOC(=O)NC(O)C(=O)c1cccs1 (stereo not given),"inconclusive [inhibitor, single point]",
CCCCN(C)CCN1C(=O)C2C(C(=O)Nc3ccc(C)cc3)C3C=CC2(O3)C1C(=O)NC1CCCCC1 (stereo not given),inactive,
O=C1CC(C(=O)O)S/C(=N\NC(=O)c2ccc(F)cc2)N1 (stereo not given),inactive,
CC(=O)Nc1ccc(C(=O)N2CCCC(c3cc(C(=O)Nc4ccccc4Cl)no3)C2)cc1 (stereo not given),"inconclusive [inhibitor, single point]",
CCN(c1ccc(C)cc1C)S(=O)(=O)c1nnc(NC(=O)CC(C)C)s1,"inconclusive [inhibitor, partial curve]",
COc1cccc(-c2cc(NC=O)c3ncc(-c4ccc(F)c(Cl)c4)n3c2)c1,"inconclusive [inhibitor, single point]",
COc1ccccc1N1CCN(C(=O)c2onc(C)c2Cl)CC1,"inconclusive [inhibitor, single point]",
COc1cccc(CNC(=O)c2ccc(CS(=O)Cc3ccc(C)cc3)o2)c1 (stereo not given),"inconclusive [inhibitor, single point]",
Cc1cccn(Cc2c(Cl)cccc2Cl)c1=O,"inconclusive [inhibitor, single point]",
Cc1cccc(S(=O)(=O)Nc2ccc(-c3ccc4nncn4n3)cc2)c1,"inconclusive [inhibitor, single point]",
CC(C)CC(N)c1csc(Nc2ccc(S(C)(=O)=O)cc2)n1 (stereo not given),inactive,

Structure (SMILES),Potency,"activity change, negative = growth inhibition"
Cc1cccc(NC(=O)c2nc[nH]c2C(=O)Nc2ccccc2F)c1,"inconclusive [inhibitor, partial curve]",
COc1ccc(OC)c(NC(=O)CSc2nnc(-c3cccnc3)s2)c1,"inconclusive [inhibitor, single point]",
COCCN1CCn2c(nc3cc([N+](=O)[O-])ccc32)C1,inactive,
c1ccc(-c2cnc(-c3ccccn3)nn2)cc1,"inconclusive [inhibitor, single point]",
COc1ccc(N(C(=O)CNC(=O)c2cccs2)C(C(=O)NCC2CCCO2)c2ccccc2)cc1OC (stereo not given),"inconclusive [inhibitor, single point]",
CCCCCC1CC(COc2ccccc2)OC1=O (stereo not given),inactive,
Cc1ccc(S(=O)(=O)Nc2cc(Cl)c3oc4c(c3c2)C(=O)CC(C)(C)C4)cc1,"inconclusive [inhibitor, single point]",
CCn1cc(S(=O)(=O)NCCc2ccccc2OC)cn1,inactive,
COC(=O)c1c(NC(=O)CSc2nnc(-c3ccco3)n2C)sc(C)c1C,,inconclusive: -31.6% [inhibitor]
CCOc1ccc(CCN2C(=O)C(=O)N([C@@H](CC(C)C)CN3CCC[C@H]3CN3C(=O)C(=O)NC[C@@H]3Cc3ccc(O)cc3)C[C@@H]2Cc2ccccc2)cc1,active: 16.4 µM,
COc1cc(C(=O)Nc2ccc(-c3cc(C(F)(F)F)nn3-c3ccccc3)cc2)cc(OC)c1OC,active: 14.6 µM,
O=C(c1ccc(S(=O)(=O)N2CCCCCC2)cc1)N1CCN(c2ccccc2)CC1,"inconclusive [inhibitor, single point]",
O=C(NC1CCCC1)c1cnn2c1NC(=C1CC1)C=C2C(F)F,"inconclusive [inhibitor, single point]",
Cc1ccc(-c2nnn(CC(=O)NC3CC4CCC3C4)n2)cc1 (stereo not given),"inconclusive [inhibitor, single point]",
Nc1ncnc2c1ccn2[C@H]1CN(Cc2ccc(Cl)cc2)C[C@@H](CO)O1,active: 13 µM,
CCOc1ccc(N(CC(=O)Nc2ccc(F)c(F)c2)S(=O)(=O)c2c(C)noc2C)cc1,"inconclusive [inhibitor, single point]",
O=C(c1ccc(S(=O)(=O)N2CCCCC2)cc1)N1CCCc2ccccc21,,inconclusive: -30.4% [inhibitor]
C1CCC(NC(=NC2C3CC4CC(C3)CC2C4)N2CCOCC2)CC1 (stereo not given),active: 22.7 µM,
CC(C)CCNC(=O)Cc1ccc(Nc2nc(=S)[nH]c3ccccc23)cc1,"inconclusive [inhibitor, single point]",
COc1ccccc1-c1nnc(SCC(=O)N2CC(C)CC(C)C2)o1 (stereo not given),"inconclusive [inhibitor, single point]",
Cc1cccc(-c2nc(Nc3cccc(O)c3)c3ccccc3n2)c1,"inconclusive [inhibitor, single point]",
Cc1ccc2c(CN3C(=O)NC(C)(c4ccc5c(c4)OCO5)C3=O)cc(=O)oc2c1 (stereo not given),"inconclusive [inhibitor, single point]",
O=S(=O)(/N=C(\c1ccc(F)cc1)N1CCOCC1)c1ccccc1,inactive,
Cc1nnc2sc(-c3ccncc3)nn12,inactive,

Structure (SMILES),Potency,"activity change, negative = growth inhibition"
Cc1ccc(C(=O)N(CCN(C)C)CC2CCCN(Cc3ccccc3F)C2)cc1C (stereo not given),"inconclusive [inhibitor, single point]",
Cn1c(=O)c(=O)n(C)c2cc(N3CCCC3)c(NS(=O)(=O)c3ccc(Cl)cc3)cc21,"inconclusive [inhibitor, single point]",
Cc1ccccc1NC(=O)CSc1nc2ccc(NC(=O)COc3ccccc3F)cc2s1,active: 10.3 µM,
CC(=O)c1ccc(N2CCN(CC(O)COC(c3ccccc3)c3ccccc3)CC2)cc1 (stereo not given),"inconclusive [inhibitor, partial curve, poor fit]",
CC(=O)c1cccc(NC(=S)NC(=O)c2ccc(Cl)cc2)c1,inactive,
CCn1cnc2c1c(=O)n(Cc1csc(-c3ccccc3)n1)c(=O)n2Cc1ccccc1,"inconclusive [inhibitor, partial curve, poor fit]",
CCC1CCC(C(=O)NC(C(=O)Nc2ccc3c(c2)OCCO3)C(C)C)CC1 (stereo not given),"inconclusive [inhibitor, partial curve, poor fit]",
CCS(=O)(=O)N1CCC2(CC1)OCCN2S(=O)(=O)c1ccccc1,inactive,
Cc1ccc(C(C)C)c(OCC(=O)Nc2ccc3c(c2)nc(CN2CCCC2)n3C)c1,active: 14.6 µM,
Cc1cc(C)c2c(n1)sc1c(=O)n(Cc3ccccc3Cl)nnc12,inactive,
CC(=O)c1cccc(-c2cnc3c(NC=O)cc(-c4ccc(N5CCN(C)CC5)cc4)cn23)c1,active: 16.4 µM,
CC(=O)Nc1ccc2nc3ccccc3nc2c1,"inconclusive [inhibitor, single point]",
COC(=O)c1ccc(CNCC(O)COc2ccc(-c3ccccc3)cc2)cc1 (stereo not given),"inconclusive [inhibitor, single point]",
Cc1c(Cl)cccc1NC(=O)Nc1ccccc1C(N)=O,active: 6.51 µM,
CCOc1ccc(CCNC(=O)Cn2nc(C)c3c(C)n(-c4ccccc4)nc3c2=O)cc1OCC,"inconclusive [inhibitor, single point]",
Cc1ccc(-n2c(=O)cc(N3CCc4ccccc4C3)[nH]c2=O)cc1,,inconclusive: -30.6% [inhibitor]
CC(C)OP(=O)(OC(C)C)/C(C=O)=N\Nc1ccc([N+](=O)[O-])cc1,"inconclusive [inhibitor, single point]",
CCOC(=O)c1c(C)sc(-c2c(-c3cc(C)ccc3C)[nH]c3c2c(=O)[nH]c(=O)n3C)c1O,"inconclusive [inhibitor, partial curve, poor fit]",
CC1(C(=O)NCc2cccc(Cl)c2)Cc2c(-c3ccc4c(c3)OCO4)ccnc2O1 (stereo not given),active: 16.4 µM,
COc1ccc(CN2CCCC(CNC(=O)c3ccc(F)cc3)C2)c(C)c1C (stereo not given),"inconclusive [inhibitor, partial curve]",
Cc1ccc(CC(Cc2nc3ccccc3[nH]2)c2nc3ccccc3[nH]2)cc1 (stereo not given),active: 26.6 µM,
Cc1cccc(NC(=O)Cn2nc(N3CCN(c4ccccc4)CC3)ccc2=O)c1C,"inconclusive [inhibitor, single point]",
